According to ChEMBL document CHEMBL4888484, “Replenishing the malaria drug discovery pipeline: Screening and hit evaluation of the MMV Hit Generation Library 1 (HGL1) against asexual blood stage Plasmodium falciparum ,using a nano luciferase reporter read-out” (2022):
About 540 (0.36%) of roughly 150,000 compounds showed an effect of 50% or more. The list shows a part of the results.

These compounds were tested on Plasmodium falciparum (assay: Primary screen in NF54 nanoGlo assay, in single point, at 2uM, 72h; a lower Z score goes with more inhibition). Settings: timepoint 72 hour.
Assay type: functional, Erythrocyte
With `O=C1C[C@@H](C(=O)N2C3CCC2CC(CC(F)(F)F)C3)NC(=O)N1` (stereo not given in full) the “% Inhibition” value was 6% and the Z score was -1.23. With `Cc1nc(CNC(=O)N[C@H](c2cccs2)C(C)(C)C)no1` the “% Inhibition” value was 3% and the Z score was -0.54. In the case of `Cc1nc(C(C)C)sc1-c1nc([C@H]2CCOC2)no1`, the “% Inhibition” value is reported as -3% and the Z score is reported as 0.5. `CN1CCCC[C@H]1c1ncnn1Cc1c(F)cccc1Cl` was tested, and the “% Inhibition” value was -17% and the Z score was 2.21. For `COC[C@H]1CCCN1C(=O)CCc1nc(C2CC2)no1`, the “% Inhibition” value was 4% and the Z score was -0.51. `O=C(NCc1nc(C2CC2)no1)NCc1cccs1` was tested, and the “% Inhibition” value was -3% and the Z score was 0.28. `COc1ccc(-n2c(C[C@@H]3C(=O)N(C)c4ccccc43)nc3ccccc3c2=O)cc1` was tested, and the “% Inhibition” value was -5% and the Z score was 0.54. `CCN1CCCN(CC(=O)NC2CCCCCCC2)CC1` was tested, and the “% Inhibition” value was -1% and the Z score was 0.11. With `N#Cc1cc(NCc2ccc3c(c2)OCCO3)ccc1Cl` the “% Inhibition” value was -16% and the Z score was 1.66. With `C[C@@H](Cn1ncc2ccccc2c1=O)NS(=O)(=O)c1ccc2c(c1)CCCC2` the “% Inhibition” value was -5% and the Z score was 0.6. For `CCCN1C[C@@H](n2cnc3cccnc3c2=O)CC1=O`, the “% Inhibition” value was -15% and the Z score was 1.89. In the case of `C[C@]1(Cc2ccc3c(c2)OCO3)CCCN(Cc2ccncc2)C1`, the “% Inhibition” value is reported as -15% and the Z score is reported as 1.56. In the case of `c1cncc(-c2noc(C3CN(Cc4ccco4)C3)n2)c1`, the “% Inhibition” value is reported as -2% and the Z score is reported as 0.34. For `CC(=O)N1CC(NC(=O)Cc2c[nH]c3cc(Cl)ccc23)C1`, the “% Inhibition” value was -41% and the Z score was 4.84. `Cc1noc(C(C)(C)NC(=O)Cc2cc(C)on2)n1` was tested, and the “% Inhibition” value was 2% and the Z score was -0.22. For `Cc1c[nH]c(CN(Cc2ccc3c(c2)OCO3)C2CC2)c(C)c1=O`, the “% Inhibition” value was -2% and the Z score was 0.35. For `CCc1nccn1CCCn1cnc2cn(C)nc2c1=O`, the “% Inhibition” value was -1% and the Z score was 0.1. For `CN(Cc1ncc[nH]1)C(=O)NC1(CC(C)(C)C)CC1`, the “% Inhibition” value was -11% and the Z score was 1.08. For `Cc1cnc(CCNC(=O)c2cn(C)cn2)n1C1CCCCC1`, the “% Inhibition” value was 2% and the Z score was -0.23. For `CCC(=O)Nc1cn(-c2cccc(C(=O)NCc3ccncc3)c2)nc1C`, the “% Inhibition” value was -2% and the Z score was 0.32. `O=C(CCCN1CCCC1)N1C[C@H]2CCC[C@@H](C2)C1` was tested, and the “% Inhibition” value was 0% and the Z score was 0.09. With `O[C@@H]1COCCN(Cc2cc3c(cc2Cl)OCO3)C1` the “% Inhibition” value was 6% and the Z score was -0.98. `O=C(NCc1ccc(F)cc1)Nc1ccccc1-c1cc2ccccc2[nH]1` was tested, and the “% Inhibition” value was -3% and the Z score was 0.4. `C[C@H](NC(=O)C1COc2ccccc2O1)C(=O)N1CCN(Cc2ccccc2)CC1` (stereo not given in full) was tested, and the “% Inhibition” value was 0% and the Z score was 0.05. In the case of `Cc1c(S(=O)(=O)N2CCCC[C@H]2C(=O)O)oc2ccc(F)cc12`, the “% Inhibition” value is reported as -1% and the Z score is reported as 0.11.
